Assay results from the supplement of paper PMC10338343.
± gives the standard deviation. In all, about 6,600 sequences were measured (“pre-steady-state target cleavage rate”: median about 0.07, highest 2% from about 0.72 on). The list shows a part of the results, in another mix than the full data.

Each sequence was assayed on MIWI (PIWIL1) piRISC loaded with Kctd7 piRNA (30 nt) (assay: pre-steady-state target cleavage rate (min^-1); MIWI and MILI are mouse PIWI proteins and EfPiwi is from a freshwater sponge; tags in brackets are library labels; higher = faster piRNA-guided slicing of the target). Conditions: guide: Kctd7 piRNA 5'p-UGUUAAUCUCUCAGAGAAGGUGACAGUGAU; auxiliary factor: 500 nM mouse GTSF1.
Outline: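 Sequencing of uncleaved targets, normalised to depth and to weakly complementary targets, was the readout of this Cleave-'n-Seq assay. A transcribed, DNA-blocked target RNA library (0.1 nM) was mixed with 1 nM active affinity-purified piRISC carrying one synthetic guide, with or without 500 nM GTSF1 partner protein, in HEPES–potassium acetate buffer at 33 °C for 0–8 or 0–960 min. Three trials were pooled, k3 was capped at 0.0001 min^-1, and a burst-and-steady-state fit gave the pre-steady-state cleavage rate.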

Row | Sequence | pre-steady-state target cleavage rate
1 | UACUCUCUCACCUUCUCUGAGAGAUUAACA | 0.195 ± 0.019
2 | UAGACAGUCACCUUCUCUGACAGAUUAACA | 0.571 ± 0.033
3 | UAGUGACAGACCUUCUCUGAGAGGUUAACA | 0.058 ± 0.015
4 | UAGUGACAGUGCAUCUCUGAGAGAUAAACA | < 0.0001
5 | UAGACUGUCACCUAGUCUGAGAGAUUAAGA | 0.0592 ± 0.015
6 | UACCCUGUCACCUUCUCUGAGAGAUUAACA | 0.638 ± 0.034
7 | UUCACUCAGACCUUCUCUGAGAGAUUAAGA | 0.011 ± 0.0036
8 | UAGUGUGUCACCUUGUCUGACAGAUUAACA | 0.204 ± 0.032
9 | UAGUGACAGAGCUUCUCUGAGAGAUUUACA | 0.00888 ± 0.0034
10 | UAGACUGUCACCUUCUCUCACAGAUUAACA | 0.00825 ± 0.002
11 | UAGUGACAGACCUUCUGUGAGAGAUUUACA | 0.0319 ± 0.0076
12 | AUGACUGUCACGUUCUCUGAGAGAUUAACA | 0.755 ± 0.054
13 | UAGUCUGACACCUUCUCUGAGAGAAUAACA | 0.22 ± 0.04
14 | UAGUGACACACCUUCUCUGGAGAUUAACA | 0.0248 ± 0.0053
15 | UAGUGACAGUUCUUCUCUGAGAGAUUAACA | 0.0202 ± 0.0035
16 | UAGUGACAGUCCAUCUCUGAGAGAUUAUCA | 0.0033 ± 0.0029
17 | UAGUGUGUCACCUUCUCUGAGAGUUUAACA | 0.473 ± 0.087
18 | UUCACUGUCACAUUCUCUGAGAGAUUAACA | 0.682 ± 0.031
19 | UAGUGACUCACCUUCUCUGAGAGAUAUUCA | 0.0696 ± 0.016
20 | UAGUCUGUCACCUUCUCUGACGAGAUUAACA | 0.0121 ± 0.0053
21 | UAGUCUGUCGCCUUCUCUGAGAGAUUAACA | 0.684 ± 0.053
22 | UAGUGUGUCACCGUUCUCUGAGAGAUUAACA | 0.453 ± 0.037
23 | UAGUGAGUCUCCUUCUCAGAGAGAUUAACA | 0.152 ± 0.017
24 | UAGUGACAGUCCUUCUCUGAGAUAUUAACA | 0.0174 ± 0.0036

Row | Sequence | pre-steady-state target cleavage rate
25 | UAGUGACAGUGGAAGAGUGAGUGUUUAACA | < 0.0001
26 | UAGUGAGUCACCUUCUCUGAGACUUAUUGA | 0.00403 ± 0.0035
27 | UAGUCUGUCACCUUCUCUGAGAGAAAAACA | 0.144 ± 0.027
28 | UAGUGAGUCACGUUCUCUGAGAGAUUAUGA | 0.0314 ± 0.0098
29 | UAGUGACAGACCUUCUCUGAGAGAUAAACA | 0.0673 ± 0.0093
30 | AUCACUGUCACCUUCUGAGAGAGAUUAACA | 0.06 ± 0.0094
31 | AUCACUGUCACCUUCUCUGAGUGAUUAAGA | 0.00862 ± 0.0047
32 | AUCACUGUCACCUUCUCUGAGAGAAUUAACA | 0.738 ± 0.13
33 | UAGACUCUCACCUUCUCUGUGAGAUUAACA | 0.197 ± 0.0098
34 | UAGUGACAGUCCUUCGUCUGAGAGAUUAACA | 0.00403 ± 0.0018
35 | UACACUGUCAGCCUUCUCUGAGAGAUUAACA | 0.259 ± 0.021
36 | UAGUGACACACCAUCACUGAGAGAUUAACA | 0.0435 ± 0.0092
37 | UACACUGUCACCAUCUCUGACAGAUUAACA | 0.173 ± 0.016
38 | UAGUGACAGACCUUCUCUGAGCGAUUAACA | 0.0395 ± 0.0057
39 | UAGUGACACUCCUUCUCUCAGAGAUUAACA | 0.0115 ± 0.0032
40 | UAGUGACAGUGCUUCUCUGACAGAUAAACA | < 0.0001
41 | AUCACUGUCACCUUCUCUGACAGUUUAACA | 0.038 ± 0.0079
42 | UUCACAGACACCUUCUCUGAGAGAUUAACA | 0.505 ± 0.03
43 | UACACUGCCACCUUCUCUGAGAGAUUAACA | 0.613 ± 0.035
44 | AAGUCUGUCACCUUCUCUGAGAGAUUAACA | 0.704 ± 0.031
45 | UAGUGACAGACCUACUCUGAGAGAUUAUCA | 0.0129 ± 0.0039
46 | UACACUGUCUGGUUCUCUGAGAGAUUAACA | 0.127 ± 0.013
47 | UACACUGUCACAUUCUCUGAGAGAUUAACA | 0.676 ± 0.036
48 | UAGUGACAGUCCUUCUCUGACAGAUUAACA | 0.0132 ± 0.0036

Row | Sequence | pre-steady-state target cleavage rate
49 | UAGUGACAGUCCUUCUCUGAGAGAAUUAACA | 0.0106 ± 0.0025
50 | UAGUGAGUCACCUUCUCUGAGAGAUUUACA | 0.215 ± 0.029
51 | UAGUGACAGUCCUUCUCUGAGUCUAAUUGA [g10:g20:cont:t1A] | < 0.0001
52 | UACACUGUCACCUACUCUGAGAGAUUUACA | 0.368 ± 0.059
53 | AUCACUGUCACCUUCUCUGUGAGAUUAACA | 0.309 ± 0.017
54 | UACACUGUCUCCUUCUCUGAGAGAUUUUGA | 0.0639 ± 0.021
55 | UAGUGACAGACCUUGUCUGAGAGAUUAUCA | 0.0133 ± 0.0074
56 | AUCAGACUCACCUUCUCUGAGAGAUUUUGA | 0.0093 ± 0.0036
57 | UAGUGACAGACCAUCUCUGAGAGAUUAUCA | 0.00822 ± 0.0029
58 | UUCACUGUCAGCCUUCUCUGAGAGAUUAACA | 0.292 ± 0.026
59 | UAGACUGUCACCUUCAGUGAGAGAUUAAGA | 0.0193 ± 0.0072
60 | UUCACUGUCACCUUCUCUGAGAGAGUAACA | 0.228 ± 0.037
61 | UAGUCUGUCACCUUCUCUGAGAGAUGUAACA | 0.332 ± 0.044
62 | UAGUGAGUCACCUUCUCUGAGAGAUUUUCA | 0.137 ± 0.027
63 | UAGACUGUCACCUAGUCUGAGAGAUUAACA | 0.517 ± 0.035
64 | UAGUGACAGUGGAAGAGACUCUCAUUAACC [g2:g7:cont:t1C] | < 0.0001
65 | UACACUGUCAGGUUCUCUGAGAGAUUAACA | 0.477 ± 0.036
66 | UACACUGUCAACUUCUCUGAGAGAUUAACA | 0.796 ± 0.035
67 | UAGUGACACACCUUCUCUGAGAGUUUAUCA | 0.015 ± 0.0071
68 | UAGUGAGUCACGUUCUCUGAGAGAUAAACA | 0.237 ± 0.022
69 | UAGUGUCGUCACCUUCUCUGAGAGAUUAACA | 0.646 ± 0.043
70 | UAGACUGUCAGCUUGUCUGAGAGAUUAACA | 0.596 ± 0.034
71 | UAGUGUCACACCUUCUCUGAGAGAUUAAGA | 0.245 ± 0.044
